The other results are listed elsewhere or left out. The data describe in vitro nicking of single-stranded DNA by Rep domains (1 h at 37 °C, 3 µM enzyme); the outer parts of the 90-letter strands are left off. Numbers give uncut DNA relative to the enzyme-free pool, as log2; strong cutting gives strongly negative numbers. There is no active / inactive call. Reads are scaled to the total, so uncut sequences can rise above 0 when many others are cut.
Legend:
Assay in all cases: uncleaved DNA left, log2 of reads against the no-enzyme library (log2 ratio); higher = less cleavage (more negative = more Rep cleavage of the k-mer); sequences stand for … in CTCGTCCG…ACCGGAGA
[1] = system: T1, Rep nickase domain of Muscovy duck circovirus
T1 sequence (protein, residues 1-111, tag omitted): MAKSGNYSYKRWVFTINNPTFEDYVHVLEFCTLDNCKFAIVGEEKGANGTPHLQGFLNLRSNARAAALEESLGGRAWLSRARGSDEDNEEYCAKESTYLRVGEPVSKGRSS
Protocol: (§1)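 A pool of 90-nt single-stranded DNAs with seven random bases just before the constant AC of the nick site (name = the seven bases) was cut by 3 µM recombinant His6-SUMO-tagged Rep nickase domain (300 nM DNA, 50 mM HEPES pH 8.0, 50 mM NaCl, 1 mM MnCl2, 1 h, 37 °C, three replicates). Uncut DNA was amplified and sequenced.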

[2] = system: T2, Rep nickase domain of banana bunchy top virus
T2 sequence (protein, residues 1-94, tag omitted): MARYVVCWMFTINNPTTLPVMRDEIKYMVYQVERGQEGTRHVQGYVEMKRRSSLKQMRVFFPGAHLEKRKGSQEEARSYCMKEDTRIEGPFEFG
Protocol: as §1

[3] = system: T3, Rep nickase domain of cabbage leaf curl virus
T3 sequence (protein, residues 1-116, tag omitted): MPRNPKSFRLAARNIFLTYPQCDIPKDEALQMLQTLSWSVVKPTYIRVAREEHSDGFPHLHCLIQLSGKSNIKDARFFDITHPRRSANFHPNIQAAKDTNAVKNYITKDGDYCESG
Protocol: as §1

[4] = system: T4, Rep nickase domain of chickpea chlorotic dwarf virus
T4 sequence (protein, residues 1-124, tag omitted): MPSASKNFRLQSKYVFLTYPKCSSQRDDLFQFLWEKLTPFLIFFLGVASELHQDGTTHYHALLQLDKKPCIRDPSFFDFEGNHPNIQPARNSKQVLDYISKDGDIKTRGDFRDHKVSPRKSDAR
Protocol: as §1

[5] = system: T5, Rep nickase domain of faba bean necrotic yellows virus
T5 sequence (protein, residues 1-98, tag omitted): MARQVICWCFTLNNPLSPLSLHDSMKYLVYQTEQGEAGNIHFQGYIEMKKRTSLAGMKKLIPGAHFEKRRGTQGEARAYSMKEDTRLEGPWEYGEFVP
Protocol: as §1

[6] = system: T6, Rep nickase domain of maize striate mosaic virus
T6 sequence (protein, residues 1-117, tag omitted): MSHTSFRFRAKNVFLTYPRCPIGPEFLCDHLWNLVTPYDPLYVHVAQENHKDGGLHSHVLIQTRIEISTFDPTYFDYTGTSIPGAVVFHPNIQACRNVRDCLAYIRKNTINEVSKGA
Protocol: as §1

[7] = system: T7, Rep nickase domain of porcine circovirus 2
T7 sequence (protein, residues 2-116, tag omitted): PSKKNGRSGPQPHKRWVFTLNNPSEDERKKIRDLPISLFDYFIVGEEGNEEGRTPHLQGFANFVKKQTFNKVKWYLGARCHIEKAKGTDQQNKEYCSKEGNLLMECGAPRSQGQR
Protocol: as §1

[8] = system: T8, Rep nickase domain of tomato golden mosaic virus
T8 sequence (protein, residues 1-124, tag omitted): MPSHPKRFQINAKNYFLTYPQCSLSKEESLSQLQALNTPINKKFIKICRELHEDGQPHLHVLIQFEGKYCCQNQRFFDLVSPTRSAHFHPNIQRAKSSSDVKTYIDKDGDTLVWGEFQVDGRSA
Protocol: as §1

[9] = system: T9, Rep nickase domain of tomato yellow leaf curl virus
T9 sequence (protein, residues 1-136, tag omitted): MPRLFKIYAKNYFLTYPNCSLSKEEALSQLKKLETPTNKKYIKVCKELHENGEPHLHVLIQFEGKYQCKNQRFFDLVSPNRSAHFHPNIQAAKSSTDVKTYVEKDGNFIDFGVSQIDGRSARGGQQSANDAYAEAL
Protocol: as §1

[10] = system: T10, Rep nickase domain of wheat dwarf virus
T10 sequence (protein, residues 1-137, tag omitted): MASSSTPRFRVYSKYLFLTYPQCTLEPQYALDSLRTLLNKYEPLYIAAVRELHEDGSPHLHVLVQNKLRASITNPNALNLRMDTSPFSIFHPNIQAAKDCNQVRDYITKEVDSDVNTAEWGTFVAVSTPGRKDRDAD
Protocol: as §1

| Sequence | uncleaved DNA left (log2) [1] | uncleaved DNA left (log2) [2] | uncleaved DNA left (log2) [3] | uncleaved DNA left (log2) [4] | uncleaved DNA left (log2) [5] | uncleaved DNA left (log2) [6] | uncleaved DNA left (log2) [7] | uncleaved DNA left (log2) [8] | uncleaved DNA left (log2) [9] | uncleaved DNA left (log2) [10] |
| --- | --- | --- | --- | --- | --- | --- | --- | --- | --- | --- |
| CCAAAGA | 0.0265 | 0.0586 | -0.0547 | -0.163 | 0.136 | -0.964 | 0.0979 | 0.132 | -0.0236 | 0.123 |
| CTGTGGA | 0.0946 | -0.123 | -0.0328 | -0.267 | -0.0816 | -0.669 | -0.0221 | -0.0276 | -0.0524 | -0.0453 |
| GGCGCTC | -0.0896 | -0.0714 | 0.22 | 0.795 | -0.143 | 1.24 | 0.0307 | -0.181 | -0.0895 | -0.0529 |
| TAATCCA | -1.37 | 0.0379 | -2.84 | -2.58 | 0.0817 | -2.42 | -2.09 | -2.92 | -0.00481 | -2.85 |
| AACCCCT | -0.11 | -0.0594 | -0.512 | -2.75 | 0.0272 | -0.391 | -0.948 | -0.23 | 0.0429 | -0.133 |
| CCCGGGA | 0.0263 | -0.0344 | 0.433 | 0.952 | -0.103 | 1.49 | 0.0151 | 0.00375 | 0.0807 | -0.0348 |
| CCTTACG | -0.134 | 0.0402 | -0.898 | -0.209 | 0.0232 | -0.923 | 0.173 | -0.215 | -0.0613 | -0.225 |
| TGCTAAC | 0.0629 | 0.0424 | 0.235 | 0.219 | 0.0562 | 1.18 | 0.207 | 0.148 | 0.155 | 0.131 |
| CGGGATA | 0.117 | -0.017 | 0.703 | 1.67 | 0.0555 | 1.89 | 0.225 | 0.085 | 0.0731 | 0.154 |
| GGATCGT | 0.0248 | 0.151 | 0.764 | 1.67 | 0.0278 | 2 | 0.125 | -0.00674 | 0.11 | 0.178 |
| CGTTTCC | -0.136 | -0.0266 | 0.125 | -0.00348 | -0.0812 | -0.0934 | -0.304 | -0.131 | -0.0561 | -0.0499 |
| TCACAGT | -0.0174 | 0.0451 | -0.213 | -1.41 | 0.00565 | -0.765 | 0.031 | -0.0793 | 0.0807 | -0.0597 |
| ACCACCT | -0.0946 | -0.0147 | -0.227 | -1.79 | 0.114 | -0.59 | 0.0234 | -0.0153 | -0.161 | 0.0597 |
| AACTAAG | 0.0162 | 0.0111 | -0.699 | -0.357 | 0.191 | -1.12 | 0.193 | 0.0412 | 0.123 | -0.0603 |
| AACACCC | -0.133 | -0.111 | 0.0131 | -0.704 | -0.162 | -0.165 | -0.287 | -0.0772 | -0.144 | -0.0174 |
| TGCTCTC | -0.0275 | -0.142 | 0.209 | 0.164 | -0.107 | 0.497 | -0.121 | -0.0783 | -0.174 | -0.15 |
| TCGTGCG | -0.0301 | -0.158 | -0.783 | 0.675 | -0.041 | -0.271 | 0.0715 | -0.058 | -0.0937 | -0.0864 |
| GTTACTT | -0.0455 | 0.124 | 0.268 | 0.598 | -0.0696 | 1.69 | -0.0225 | 0.0417 | 0.175 | 0.164 |
| CGTTAGT | -1.61 | -0.0354 | 0.0942 | -0.395 | 0.0951 | -0.68 | -2.77 | 0.101 | 0.0635 | 0.0802 |
| TAGCTGA | 0.175 | 0.078 | 0.367 | 1.54 | 0.0245 | 1.66 | 0.183 | 0.18 | 0.0131 | 0.173 |
| TTAGTCG | -0.118 | -0.154 | -1.07 | -0.298 | -0.0246 | -1.25 | 0.0658 | -0.199 | -0.186 | -0.166 |
| GCTTGTT | -2.1 | -0.357 | 0.0353 | -0.0936 | 0.0529 | 0.473 | -2.67 | 0.0129 | 0.132 | -0.215 |
| TAAGGCT | 0.0949 | -0.0385 | -1.92 | -1.91 | -0.0626 | 0.861 | -0.0185 | -0.09 | -0.117 | -0.322 |
| AGAGCCC | -0.161 | -0.0757 | 0.571 | 1.26 | 0.0359 | 1.73 | -0.106 | -0.00928 | -0.033 | 0.0296 |
| CATTACT | -4.15 | -3.98 | -2.57 | -3.48 | -2.69 | -1.69 | -3.91 | -2.23 | 0.0689 | -0.886 |
| CAAATTC | -0.0458 | -0.0338 | -0.416 | -1.02 | -0.00449 | -1.07 | 0.0374 | -0.0296 | 0.0385 | -0.133 |
| TTCGTCT | -0.00614 | -0.127 | 0.00864 | -1.75 | -0.108 | -0.811 | -0.175 | -0.184 | -0.0802 | -0.138 |
| ATGGGAA | -0.0516 | -0.117 | 0.219 | 1.19 | -0.103 | 1.48 | 0.0388 | -0.11 | -0.238 | -0.0621 |
| CCCCAGC | 0.0173 | -0.0741 | -0.311 | -0.51 | -0.0617 | -0.97 | 0.156 | 0.121 | 0.0962 | 0.0272 |
| GTCCACC | -0.0918 | 0.0643 | 0.326 | 0.774 | 0.0172 | 1.44 | -0.0775 | 0.0158 | 0.0662 | -0.00684 |

Source: the supplement of paper PMC7826260
